{
  "source": "paper PMC12820563",
  "about": "“FoxP3 forms a head-to-head dimer in vivo and stabilizes its multimerization on adjacent microsatellites”",
  "note": "The other results are listed elsewhere or left out.",
  "data": [
    {"molecular_target": "T1, MBP-FoxP1dN (Mus musculus, UniProt P58462 326-579)", "T1 sequence": "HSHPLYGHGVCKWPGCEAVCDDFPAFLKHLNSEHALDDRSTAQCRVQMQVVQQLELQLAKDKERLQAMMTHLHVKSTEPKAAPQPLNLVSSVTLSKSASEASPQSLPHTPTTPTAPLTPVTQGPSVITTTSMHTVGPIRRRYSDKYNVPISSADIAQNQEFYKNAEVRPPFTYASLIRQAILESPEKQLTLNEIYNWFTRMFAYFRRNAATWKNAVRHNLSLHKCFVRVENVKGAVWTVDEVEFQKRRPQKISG", "assay": "PD-seq (MBP pull-down with sequencing); 20 mM Tris-HCl pH 7.5, 100 mM NaCl, 1.5 mM MgCl2, 0.4 uM protein, 0.1 uM dsDNA library, 30 min, room temperature, amylose pull-down; high values mean tight binding", "settings": "protein: recombinant; tags: His6-MBP; chain copies: 2; dsDNA, one strand shown", "method_in_brief": "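A degenerate double-stranded DNA library, filled in with Klenow, was added at 0.1 µM to 0.4 µM His6-MBP-tagged mouse FoxP3 or FoxP1 fragment lacking the N-terminus, expressed in E. coli. Incubation lasted 30 min at room temperature in Tris pH 7.5 buffer with NaCl and MgCl2, after which complexes were collected on amylose resin, washed three times, digested with proteinase K to free the DNA, barcoded by PCR and sequenced by Illumina. Binding is the pooled-replicate reads-per-million enrichment of pull-down over input.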", "values": [
      {"sequence": "GATGATTGTTCTCCCAGCTGATGAATTATAAGGATCGAGTAAACAAATTTTCCTAATCTTTCTGTTCAAGCGCCATCTAC", "binding signal": "0.941 RPM ratio (pull-down/input)"},
      {"sequence": "GATGATTGTTCTCCCAGCTGATGAATTACCGTCATCGAGTAAACAAATTTTCCTAATCTTTCTGTTCAAGCGCCATCTAC", "binding signal": "1.06 RPM ratio (pull-down/input)"},
      {"sequence": "GATGATTGTTCTCCCAGCTGATGAATTCCTGTGTTCGAGTAAACAAATTTTCCTAATCTTTCTGTTCAAGCGCCATCTAC", "binding signal": "1.26 RPM ratio (pull-down/input)"},
      {"sequence": "GATGATTGTTCTCCCAGCTGATGAATTTGTGTCATCGAGTAAACAAATTTTCCTAATCTTTCTGTTCAAGCGCCATCTAC", "binding signal": "1.48 RPM ratio (pull-down/input)"},
      {"sequence": "GATGATTGTTCTCCCAGCTGATGAATTACCTCCCTCGAGTAAACAAATTTTCCTAATCTTTCTGTTCAAGCGCCATCTAC", "binding signal": "0.849 RPM ratio (pull-down/input)"},
      {"sequence": "GATGATTGTTCTCCCAGCTGATGAATTCATTAGTTCGAGTAAACAAATTTTCCTAATCTTTCTGTTCAAGCGCCATCTAC", "binding signal": "0.867 RPM ratio (pull-down/input)"},
      {"sequence": "GATGATTGTTCTCCCAGCTGATGAATTTTGTGTTTCGAGTAAACAAATTTTCCTAATCTTTCTGTTCAAGCGCCATCTAC", "binding signal": "1.58 RPM ratio (pull-down/input)"},
      {"sequence": "GATGATTGTTCTCCCAGCTGATGAATTTCCCCCTTCGAGTAAACAAATTTTCCTAATCTTTCTGTTCAAGCGCCATCTAC", "binding signal": "0.831 RPM ratio (pull-down/input)"},
      {"sequence": "GATGATTGTTCTCCCAGCTGATGAATTAAGAGCTTCGAGTAAACAAATTTTCCTAATCTTTCTGTTCAAGCGCCATCTAC", "binding signal": "0.869 RPM ratio (pull-down/input)"},
      {"sequence": "GATGATTGTTCTCCCAGCTGATGAATTAGGGAGTTCGAGTAAACAAATTTTCCTAATCTTTCTGTTCAAGCGCCATCTAC", "binding signal": "0.811 RPM ratio (pull-down/input)"},
      {"sequence": "GATGATTGTTCTCCCAGCTGATGAATTTCCAATATCGAGTAAACAAATTTTCCTAATCTTTCTGTTCAAGCGCCATCTAC", "binding signal": "1.02 RPM ratio (pull-down/input)"},
      {"sequence": "GATGATTGTTCTCCCAGCTGATGAATTGAAACCATCGAGTAAACAAATTTTCCTAATCTTTCTGTTCAAGCGCCATCTAC", "binding signal": "0.943 RPM ratio (pull-down/input)"},
      {"sequence": "GATGATTGTTCTCCCAGCTGATGAATTAGTCTACTCGAGTAAACAAATTTTCCTAATCTTTCTGTTCAAGCGCCATCTAC", "binding signal": "0.853 RPM ratio (pull-down/input)"},
      {"sequence": "GATGATTGTTCTCCCAGCTGATGAATTTACACGCTCGAGTAAACAAATTTTCCTAATCTTTCTGTTCAAGCGCCATCTAC", "binding signal": "1.17 RPM ratio (pull-down/input)"},
      {"sequence": "GATGATTGTTCTCCCAGCTGATGAATTGCTAAAATCGAGTAAACAAATTTTCCTAATCTTTCTGTTCAAGCGCCATCTAC", "binding signal": "1.28 RPM ratio (pull-down/input)"},
      {"sequence": "GATGATTGTTCTCCCAGCTGATGAATTAAACCGTTCGAGTAAACAAATTTTCCTAATCTTTCTGTTCAAGCGCCATCTAC", "binding signal": "0.979 RPM ratio (pull-down/input)"},
      {"sequence": "GATGATTGTTCTCCCAGCTGATGAATTCGCGGCGTCGAGTAAACAAATTTTCCTAATCTTTCTGTTCAAGCGCCATCTAC", "binding signal": "0.934 RPM ratio (pull-down/input)"},
      {"sequence": "GATGATTGTTCTCCCAGCTGATGAATTAGCGAGGTCGAGTAAACAAATTTTCCTAATCTTTCTGTTCAAGCGCCATCTAC", "binding signal": "0.812 RPM ratio (pull-down/input)"},
      {"sequence": "GATGATTGTTCTCCCAGCTGATGAATTATGATGATCGAGTAAACAAATTTTCCTAATCTTTCTGTTCAAGCGCCATCTAC", "binding signal": "1.15 RPM ratio (pull-down/input)"},
      {"sequence": "GATGATTGTTCTCCCAGCTGATGAATTCGTCGCTTCGAGTAAACAAATTTTCCTAATCTTTCTGTTCAAGCGCCATCTAC", "binding signal": "0.96 RPM ratio (pull-down/input)"},
      {"sequence": "GATGATTGTTCTCCCAGCTGATGAATTGGTGAACTCGAGTAAACAAATTTTCCTAATCTTTCTGTTCAAGCGCCATCTAC", "binding signal": "0.914 RPM ratio (pull-down/input)"},
      {"sequence": "GATGATTGTTCTCCCAGCTGATGAATTTCGAGGCTCGAGTAAACAAATTTTCCTAATCTTTCTGTTCAAGCGCCATCTAC", "binding signal": "0.821 RPM ratio (pull-down/input)"},
      {"sequence": "GATGATTGTTCTCCCAGCTGATGAATTGACCAGGTCGAGTAAACAAATTTTCCTAATCTTTCTGTTCAAGCGCCATCTAC", "binding signal": "0.856 RPM ratio (pull-down/input)"},
      {"sequence": "GATGATTGTTCTCCCAGCTGATGAATTTGGCACCTCGAGTAAACAAATTTTCCTAATCTTTCTGTTCAAGCGCCATCTAC", "binding signal": "0.841 RPM ratio (pull-down/input)"},
      {"sequence": "GATGATTGTTCTCCCAGCTGATGAATTTCTACTATCGAGTAAACAAATTTTCCTAATCTTTCTGTTCAAGCGCCATCTAC", "binding signal": "1.01 RPM ratio (pull-down/input)"},
      {"sequence": "GATGATTGTTCTCCCAGCTGATGAATTCGTACTGTCGAGTAAACAAATTTTCCTAATCTTTCTGTTCAAGCGCCATCTAC", "binding signal": "1.01 RPM ratio (pull-down/input)"},
      {"sequence": "GATGATTGTTCTCCCAGCTGATGAATTCCTCTTGTCGAGTAAACAAATTTTCCTAATCTTTCTGTTCAAGCGCCATCTAC", "binding signal": "0.791 RPM ratio (pull-down/input)"},
      {"sequence": "GATGATTGTTCTCCCAGCTGATGAATTGGAGCTATCGAGTAAACAAATTTTCCTAATCTTTCTGTTCAAGCGCCATCTAC", "binding signal": "0.836 RPM ratio (pull-down/input)"},
      {"sequence": "GATGATTGTTCTCCCAGCTGATGAATTCGATATGTCGAGTAAACAAATTTTCCTAATCTTTCTGTTCAAGCGCCATCTAC", "binding signal": "0.919 RPM ratio (pull-down/input)"},
      {"sequence": "GATGATTGTTCTCCCAGCTGATGAATTAAATACCTCGAGTAAACAAATTTTCCTAATCTTTCTGTTCAAGCGCCATCTAC", "binding signal": "0.999 RPM ratio (pull-down/input)"},
      {"sequence": "GATGATTGTTCTCCCAGCTGATGAATTGGAACATTCGAGTAAACAAATTTTCCTAATCTTTCTGTTCAAGCGCCATCTAC", "binding signal": "0.998 RPM ratio (pull-down/input)"},
      {"sequence": "GATGATTGTTCTCCCAGCTGATGAATTATAGTTGTCGAGTAAACAAATTTTCCTAATCTTTCTGTTCAAGCGCCATCTAC", "binding signal": "1.42 RPM ratio (pull-down/input)"},
      {"sequence": "GATGATTGTTCTCCCAGCTGATGAATTGGATGCGTCGAGTAAACAAATTTTCCTAATCTTTCTGTTCAAGCGCCATCTAC", "binding signal": "1.29 RPM ratio (pull-down/input)"},
      {"sequence": "GATGATTGTTCTCCCAGCTGATGAATTGATAAAATCGAGTAAACAAATTTTCCTAATCTTTCTGTTCAAGCGCCATCTAC", "binding signal": "1.14 RPM ratio (pull-down/input)"},
      {"sequence": "GATGATTGTTCTCCCAGCTGATGAATTGCGATTCTCGAGTAAACAAATTTTCCTAATCTTTCTGTTCAAGCGCCATCTAC", "binding signal": "1.1 RPM ratio (pull-down/input)"},
      {"sequence": "GATGATTGTTCTCCCAGCTGATGAATTAACAAGGTCGAGTAAACAAATTTTCCTAATCTTTCTGTTCAAGCGCCATCTAC", "binding signal": "1 RPM ratio (pull-down/input)"},
      {"sequence": "GATGATTGTTCTCCCAGCTGATGAATTGCCCGTGTCGAGTAAACAAATTTTCCTAATCTTTCTGTTCAAGCGCCATCTAC", "binding signal": "0.897 RPM ratio (pull-down/input)"},
      {"sequence": "GATGATTGTTCTCCCAGCTGATGAATTTATACATTCGAGTAAACAAATTTTCCTAATCTTTCTGTTCAAGCGCCATCTAC", "binding signal": "1.26 RPM ratio (pull-down/input)"},
      {"sequence": "GATGATTGTTCTCCCAGCTGATGAATTGAGGGTGTCGAGTAAACAAATTTTCCTAATCTTTCTGTTCAAGCGCCATCTAC", "binding signal": "0.852 RPM ratio (pull-down/input)"},
      {"sequence": "GATGATTGTTCTCCCAGCTGATGAATTTAAAATTTCGAGTAAACAAATTTTCCTAATCTTTCTGTTCAAGCGCCATCTAC", "binding signal": "0.973 RPM ratio (pull-down/input)"}
    ]}
  ]
}
